# The BET-seq Pho4 binding data (Le et al. 2018)
# Some of the results follow. Values were computed here from the reads of four pooled replicates and scatter widely.
# Biological target: T1, Pho4 (S. cerevisiae) (UniProt P07270)
# T1 sequence: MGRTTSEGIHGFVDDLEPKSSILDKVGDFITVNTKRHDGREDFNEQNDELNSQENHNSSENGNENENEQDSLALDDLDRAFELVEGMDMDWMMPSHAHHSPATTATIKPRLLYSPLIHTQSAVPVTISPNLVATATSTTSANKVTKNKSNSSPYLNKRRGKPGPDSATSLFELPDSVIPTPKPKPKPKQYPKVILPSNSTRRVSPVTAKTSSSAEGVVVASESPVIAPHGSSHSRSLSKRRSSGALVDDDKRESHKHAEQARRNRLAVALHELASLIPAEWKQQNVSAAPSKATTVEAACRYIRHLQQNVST
# Experiment: relative binding free energy (BET-seq); higher = weaker binding
# Details: reference: library average
row,Sequence,relative binding free energy
1,AGCAGCACGTGGGGGA,-0.39 kcal/mol
2,AGAATCACGTGTGTTA,0.21 kcal/mol
3,ATTGTCACGTGCAGTT,0.01 kcal/mol
4,AGGAGCACGTGCTGGT,-0.12 kcal/mol
5,TGGGACACGTGGGGGG,-0.04 kcal/mol
6,GCTAGCACGTGTTGAT,0.02 kcal/mol
7,CGAGGCACGTGTTTTG,-0.09 kcal/mol
8,CGATGCACGTGGTGTG,-0.13 kcal/mol
9,TAAAGCACGTGGGCGT,-0.15 kcal/mol
10,CATGGCACGTGGTGCT,-0.28 kcal/mol
11,TGGGACACGTGGTCTG,-0.19 kcal/mol
12,ATGCACACGTGGTGTG,-0.07 kcal/mol
13,AATTGCACGTGGGAAA,0.02 kcal/mol
14,TTAGGCACGTGGGGCA,-0.31 kcal/mol
15,GTAAGCACGTGATATT,0.18 kcal/mol
16,GGGTTCACGTGTATTG,0.28 kcal/mol
17,TTTATCACGTGTTGCT,0.17 kcal/mol
18,TTTGACACGTGATCGT,0.03 kcal/mol
19,GCTCGCACGTGGGTTG,-0.14 kcal/mol
20,AATCACACGTGGGTTT,0.02 kcal/mol
21,AATGGCACGTGGCGGA,-0.26 kcal/mol
22,AGCATCACGTGTTTGA,0.14 kcal/mol
23,GGTGTCACGTGTGTCT,0.23 kcal/mol
24,GGGAGCACGTGGCGAT,-0.01 kcal/mol
25,TGTTCCACGTGTAGTG,0.06 kcal/mol

row,Sequence,relative binding free energy
1,CATTGCACGTGTAATG,0.15 kcal/mol
2,TTCTCCACGTGGGGGG,-0.15 kcal/mol
3,TGGTACACGTGCTGGG,0.03 kcal/mol
4,TTTATCACGTGAAATT,0.24 kcal/mol
5,ACTTGCACGTGGAGGG,-0.07 kcal/mol
6,TAGGCCACGTGAAAGG,0.22 kcal/mol
7,GTGTTCACGTGAGGAC,0.53 kcal/mol
8,TTGTTCACGTGTGGAC,0.14 kcal/mol
9,TGCTGCACGTGTAGTT,-0.13 kcal/mol
10,TGTAGCACGTGACAGT,0 kcal/mol
11,TTCATCACGTGTTAAG,0.17 kcal/mol
12,AATGCCACGTGGCGGG,-0.29 kcal/mol
13,GGGAACACGTGGGCTA,0.04 kcal/mol
14,AGATGCACGTGTATGA,-0.02 kcal/mol
15,TGATTCACGTGTGGCG,0.3 kcal/mol
16,ATGTGCACGTGGTACT,-0.06 kcal/mol
17,CAGTGCACGTGGGAGT,-0.11 kcal/mol
18,GTAAGCACGTGGCGTA,-0.11 kcal/mol
19,GGGGTCACGTGGAGGT,0.11 kcal/mol
20,GTGTCCACGTGGTGAT,0.04 kcal/mol
21,TTAAGCACGTGTGGCT,-0.2 kcal/mol
22,CTTGGCACGTGGTCGA,-0.31 kcal/mol
23,TGATTCACGTGGGATT,0.07 kcal/mol
24,TTAGTCACGTGACTCG,0.29 kcal/mol
25,GCTGGCACGTGTGGGT,0 kcal/mol

row,Sequence,relative binding free energy
1,TATCGCACGTGGGAAG,-0.08 kcal/mol
2,TGGTTCACGTGGTTGC,0.32 kcal/mol
3,GGGTTCACGTGCACGG,0.31 kcal/mol
4,TGTTACACGTGACAGG,0.12 kcal/mol
5,GGTTCCACGTGGTTGA,0.24 kcal/mol
6,AGGGGCACGTGAAGAG,0.1 kcal/mol
7,TGCCGCACGTGTTTGT,-0.02 kcal/mol
8,TGTTTCACGTGCGTCG,0.27 kcal/mol
9,AGTAGCACGTGAGGTT,0.1 kcal/mol
10,TCGGTCACGTGGGATA,0.07 kcal/mol
11,CTTTACACGTGGTGCG,-0.01 kcal/mol
12,AGCTGCACGTGGGTAT,-0.18 kcal/mol
13,CTGGTCACGTGACTGG,0.34 kcal/mol
14,GGTCGCACGTGGCTTT,-0.03 kcal/mol
15,TGTGGCACGTGTTTGC,-0.07 kcal/mol
16,TTAGGCACGTGTTTGC,-0.04 kcal/mol
17,TCGGGCACGTGGCAAG,-0.08 kcal/mol
18,TGGTCCACGTGAAGAG,0.36 kcal/mol
19,CGGTACACGTGAGTGC,0.23 kcal/mol
20,ATAATCACGTGGTCGG,0.02 kcal/mol
21,GTGGTCACGTGGTTGT,0.13 kcal/mol
22,TATTTCACGTGTAAAT,0.15 kcal/mol
23,TTAGGCACGTGGTGCG,-0.13 kcal/mol
24,GGAGTCACGTGAGTGT,0.37 kcal/mol
25,TGTTACACGTGCATGG,0.02 kcal/mol

row,Sequence,relative binding free energy
1,TCCGGCACGTGGAGTG,0.02 kcal/mol
2,GTGTGCACGTGTTACG,-0.07 kcal/mol
3,GGAAGCACGTGTTGAG,-0.09 kcal/mol
4,AGCTTCACGTGGGTCG,0.11 kcal/mol
5,GGAGTCACGTGTACGG,0.25 kcal/mol
6,TTTTGCACGTGAAGCA,0.23 kcal/mol
7,TTGAGCACGTGCTAGT,-0.24 kcal/mol
8,TTCGGCACGTGATAGG,0.05 kcal/mol
9,AAATTCACGTGTGGAT,0.33 kcal/mol
10,GGCGTCACGTGGGCAG,-0.11 kcal/mol
11,GGGGACACGTGTGCTG,0.05 kcal/mol
12,GACGACACGTGTGGTG,0.02 kcal/mol
13,CGCTACACGTGGGTGT,-0.08 kcal/mol
14,ATGGACACGTGTAGGG,0.08 kcal/mol
15,GGAGGCACGTGGTTCT,-0.07 kcal/mol
16,TCTGGCACGTGAGTTC,0.23 kcal/mol
17,TGTGGCACGTGGATTG,-0.05 kcal/mol
18,GGTTACACGTGGTGGC,0.03 kcal/mol
19,GAGGGCACGTGTGGAA,0.07 kcal/mol
20,TGGGACACGTGTGAGT,0.27 kcal/mol
21,CGGATCACGTGGTAAG,0.17 kcal/mol
22,CTTTGCACGTGGTGCA,-0.02 kcal/mol
23,TTGCACACGTGGTGTT,-0.11 kcal/mol
24,AGGTGCACGTGTGTGG,0 kcal/mol
25,GATTGCACGTGCGGGA,0.01 kcal/mol

row,Sequence,relative binding free energy
1,GGTATCACGTGTGTGG,0.25 kcal/mol
2,TCTGTCACGTGGGGGC,-0.15 kcal/mol
3,GATGGCACGTGAAGTC,0.25 kcal/mol
4,AGTGGCACGTGTGCTC,-0.04 kcal/mol
5,ACGGGCACGTGGGTAG,-0.31 kcal/mol
6,GGATGCACGTGCGGTC,0.08 kcal/mol
7,TGAAACACGTGCTGGG,0 kcal/mol
8,AATGTCACGTGGTATT,-0.01 kcal/mol
9,TATTACACGTGGCGGT,0.04 kcal/mol
10,CTTTGCACGTGGGATA,0 kcal/mol
11,TAAATCACGTGCGGGG,0.15 kcal/mol
12,TTATGCACGTGGATGG,-0.1 kcal/mol
13,GGAGGCACGTGTGGTT,0.07 kcal/mol
14,GTTGCCACGTGTGGCT,-0.05 kcal/mol
15,GTGCGCACGTGAGTTT,0.18 kcal/mol
16,TTATTCACGTGGTAAG,0.32 kcal/mol
17,ATAGGCACGTGGAAAG,0.02 kcal/mol
18,AATGTCACGTGACTTG,0.29 kcal/mol
19,ATGGACACGTGCTTGT,-0.16 kcal/mol
20,TGTAACACGTGTGAGA,0.05 kcal/mol
21,GTGTTCACGTGTTAGA,0.27 kcal/mol
22,GTGGTCACGTGACGAT,0.29 kcal/mol
23,TTTGTCACGTGACGTC,0.21 kcal/mol
24,TTGAACACGTGGAGGG,-0.05 kcal/mol
25,GTAGACACGTGCGGGT,0.08 kcal/mol

row,Sequence,relative binding free energy
1,AGTAGCACGTGCAGGT,-0.1 kcal/mol
2,AGAGTCACGTGATGCG,0.25 kcal/mol
3,TCTGTCACGTGGATAG,0.11 kcal/mol
4,AGTCTCACGTGGTTAG,0.15 kcal/mol
5,AATATCACGTGGGGTA,0.05 kcal/mol
6,GGGCGCACGTGTATAT,0.04 kcal/mol
7,GTGCTCACGTGTTTTA,0.33 kcal/mol
8,ACTGTCACGTGTAGTA,0.07 kcal/mol
9,GAGTTCACGTGTGGCG,0.43 kcal/mol
10,ATTGGCACGTGGGGGC,-0.16 kcal/mol
11,TGGGACACGTGTTCGT,-0.02 kcal/mol
12,TTTGACACGTGGAGTT,0.08 kcal/mol
13,TGAGACACGTGAGGTT,0.17 kcal/mol
14,GGGCTCACGTGTTTGC,0.21 kcal/mol
15,AAGCGCACGTGGTTGG,-0.11 kcal/mol
16,CTGTTCACGTGAGAGT,0.53 kcal/mol
17,ATGGTCACGTGGGAAG,0.11 kcal/mol
18,TGGGGCACGTGCTTAA,-0.13 kcal/mol
19,TATATCACGTGGTAGA,0.19 kcal/mol
20,TATTGCACGTGCCGGT,-0.06 kcal/mol
21,TTGTGCACGTGCGAGG,-0.07 kcal/mol
